Test results reported in PubChem BioAssay AID504466 (National Center for Advancing Translational Sciences (NCATS), 2011).
Hit rate of the full screen: of about 330,000 compounds, about 4,200 (1.3%) were called active. The shares of active, inactive and inconclusive entries below differ from those in the screen. Calls follow the shape of the dose curve; as a rule, active = well fitted activation curve with a large enough effect; inconclusive = small, poorly fitted or top-dose-only effect; inactive = no such curve, though single readings can be large or run the other way. A potency beside an inconclusive call is a rough fit, not a confirmed value.

experiment: qHTS screen for small molecules that induce genotoxicity in human embryonic kidney (HEK293T) cells expressing luciferase-tagged ELG1; conditions: HEK293T ELG1-luciferase reporter, luminescence, 16 h; series mostly up to 46 µM; activity change, positive = activation: at the top concentration; also: nearly all actives have a fitted effect of over 60% in size; as to activity change, positive = activation: % of control where 0% means no effect
Method in brief: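 HEK293T cells expressing luciferase-tagged ELG1 were treated with compound or DMSO for 16 hr at 37°C. Luciferase activity was then read after 30 min with ONE-Glo at room temperature; rising signal flags genetic stress.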
Potency is read from the fitted curve at half-maximal effect; tags tell the direction and shape of the fitted curve.

Row | SMILES | Potency | activity change, positive = activation
1 | CCOc1ccc(Nc2n[nH]c(=S)s2)cc1 | inconclusive: 4.11 µM [activator, full curve, poor fit] | 
2 | O=C(NNC(=S)NC(=O)C12CC3CC(CC(C3)C1)C2)c1ccncc1 |  | inactive: 1.96%
3 | CCc1ccc(OCc2ccc(C(=O)OC)o2)cc1 | inconclusive: 10.3 µM [activator, partial curve] | 
4 | CC(C)CC(=O)OC1C(N2CCOCC2)c2c(ccc(/C=C/C(=O)N3CCOCC3)c2O)OC1(C)C (configuration not stated) |  | inactive: -0.211%
5 | Clc1ccc(-c2nc3ccncc3[nH]2)cc1 | inconclusive: 20.6 µM [activator, partial curve] | 
6 | CCOC(=O)c1c(N)sc(C(=O)Nc2ccc3c(c2)OCO3)c1C | active: 0.366 µM | 
7 | Cc1ccc(COc2ccc(-c3nnco3)cc2)cc1 | inconclusive: 20.6 µM [activator, partial curve] | 
8 | CCOC(=O)c1sc(=NC(=O)c2ccc(Cl)s2)n(C)c1C | active: 1.16 µM | 
9 | C#CCN1Cc2ccccc2Oc2cc(Br)ccc2S1(=O)=O |  | inactive: 1.81%
10 | O=S(=O)(Cc1ccccc1)NCC1CCCN(Cc2ccc(F)c(F)c2)C1 (configuration not stated) |  | inactive: -0.579%
11 | CC(/C=C1\SC(=S)N(CC(=O)O)C1=O)=C\c1ccccc1 |  | inactive: 15.7%
12 | CCN(CCCNC(=O)CNC(=O)c1nn(-c2ccc(OC)cc2)c(=O)c2ccccc12)c1cccc(C)c1 |  | inactive: -16.3%
13 | COc1ccccc1NC(=O)COc1ccc(CO)cc1Cl | active: 14.6 µM | 
14 | Brc1ccc(C[n+]2ccccc2)cc1 |  | inactive: -1.72%
15 | NC(=O)c1ccccc1NC(=O)/C=C/c1cccc(Cl)c1 |  | inactive: 7.06%
16 | CCN(C[C@H]1N[C@@](C)(C(=O)OC)[C@H]2C(=O)N(C)C(=O)[C@@H]12)C(=O)COc1ccccc1 |  | inactive: -2.95%
17 | COc1ccc(NS(=O)(=O)c2ccc3nc(COc4ccc5ccccc5c4)[nH]c3c2)cc1 |  | inactive: -6.38%
18 | O=C(NCCc1ccccc1)c1ccccc1NC(=O)C1CCCCC1C(=O)O (configuration not stated) | inconclusive: 11.6 µM [activator, partial curve] | 
19 | Cc1nc2c(sc3nc4c(cc32)COC(C)(C)C4)c(=O)n1Cc1ccccc1 | inconclusive: 7.31 µM [activator, partial curve, poor fit] | 
20 | Cc1ccc(NC(=S)N/C(=N/S(=O)(=O)c2ccccc2)c2ccccc2)cc1 | active: 23.1 µM | 
21 | Cc1ccc(C(=O)Cn2ncsc2=N)cc1 | inconclusive: 13 µM [activator, partial curve, poor fit] | 
22 | Cc1ccc(-c2nc3ccc(Cl)cc3c(=O)n2O)cc1 |  | inactive: -4.55%
23 | CN(/N=C/c1ccncc1)C1=NCCN1 |  | inactive: -0.162%
24 | Cc1ccc(C(=O)Nc2ccc(OCc3ccccc3)cc2)s1 | inconclusive: 4.47 µM [activator, full curve, poor fit] | 
25 | Cc1ccccc1C(=O)Oc1ccc(Sc2ccc(O)cc2)cc1 | inconclusive: 20.6 µM [activator, partial curve, poor fit] | 
26 | N#Cc1c(NC(=O)/C=C/c2ccco2)sc2c1CCCC2 | active: 2.91 µM | 

Row | SMILES | Potency | activity change, positive = activation
27 | O=C(Nc1nsc(-c2ccccc2)n1)c1ccc(F)cc1 | inconclusive: 2.06 µM [activator, partial curve, poor fit] | 
28 | O=C(Nc1ccc(Cl)cc1)C1C2CCCCC21 (configuration not stated) | inconclusive: 18.3 µM [activator, partial curve] | 
29 | COc1ccc(N2CCN(C(=O)COC(=O)c3c(-c4ccccc4)noc3C)CC2)cc1 |  | inactive: -5.52%
30 | O=c1[nH]c(C2CCN(S(=O)(=O)/C=C/c3ccccc3)CC2)nc2c1nnn2Cc1ccccc1 |  | inactive: -3.15%
31 | Cc1occc1C(=O)Nc1nnc(-c2cccs2)s1 | inconclusive: 5.8 µM [activator, partial curve] | 
32 | Cc1cc(N/C=C/C(=O)c2ccc(Br)cc2)no1 | inconclusive: 13 µM [activator, partial curve] | 
33 | COc1cccc(-n2c(C)nc3c(cnn3-c3ccc(Cl)cc3)c2=O)c1 | inconclusive: 18.4 µM [activator, partial curve] | 
34 | CC(C)(C)c1ccc(/C=C(\C#N)C(=O)Nc2ccccn2)cc1 |  | inactive: -4.65%
35 | O=C(Nc1ccc(-n2ccc(C(F)(F)F)n2)cc1)c1cccs1 | inconclusive: 8.2 µM [activator, partial curve, poor fit] | 
36 | CC(C)(C)c1ccc(-c2n[nH]c(=S)n2/N=C/c2ccncc2)cc1 |  | inactive: 2.04%
37 | Cc1cc(N2CCOCC2)nc2ccc(Cl)cc12 | inconclusive: 14.6 µM [activator, single point] | 
38 | CCc1ccc(OCC2c3cc(OC)c(OC)cc3CCN2C(=S)NC)cc1 (configuration not stated) | inconclusive: 25.9 µM [activator, partial curve, poor fit] | 
39 | COC(=O)C(C)N1C(=O)S/C(=C/c2cc(C)n(-c3ccccn3)c2C)C1=O (configuration not stated) | active: 2.59 µM | 
40 | CCOc1ccc2nc(C(=O)N3CCCC(C)C3)sc2c1 (configuration not stated) | active: 10.3 µM | 
41 | COc1ccc(C2CC(c3ccc4ccccc4c3OC(C)=O)=NN2C(C)=O)cc1 (configuration not stated) | inconclusive: 18.3 µM [activator, partial curve, poor fit] | 
42 | COc1ccc2c(c1)C(c1ccc(Cl)cc1)NC(=O)C2 (configuration not stated) |  | inactive: 2.43%
43 | CCc1ccc(C(=O)Nc2ccc3c(c2)n(C)c(=O)n3C)cc1 | active: 18.3 µM | 
44 | c1ccc(Oc2cc(-n3cccn3)ncn2)cc1 | active: 8.2 µM | 
45 | Cn1c(C(=O)N/N=C/c2ccccc2)cc2ccccc21 | inconclusive: 23.1 µM [activator, single point] | 
46 | CCC1=C/C(=C/N(C)c2ccccc2)C(=O)S1 | inconclusive: 18.4 µM [activator, single point] | 
47 | COc1ccc(S(=O)(=O)N(C)Cc2ccc3c(c2)OCCO3)cc1 |  | inactive: 2.95%
48 | Cc1cccc2c(CC(=O)Nc3ccccc3)noc12 |  | inactive: -0.556%
49 | N/C(=N\OC(=O)c1cc(Br)ccc1Cl)c1ccccn1 | inconclusive: 2.06 µM [activator, partial curve] | 
50 | CC1=C(C)CC(C(=O)NCC(=O)c2ccccc2)C(C(=O)O)C1 (configuration not stated) | active: 16.4 µM | 
51 | Cc1ccccc1NS(=O)(=O)c1ccc(C(=O)NCC(C)(C)N2CCOCC2)cc1 | inconclusive: 25.9 µM [activator, single point] | 
52 | Cc1cc(C(=O)COC(=O)c2cccnc2Cl)c(C)n1CC1CCCO1 (configuration not stated) | active: 0.517 µM | 

Row | SMILES | Potency | activity change, positive = activation
53 | CC1CCC(NC(=O)C2COc3ccccc3O2)CC1 (configuration not stated) | active: 14.6 µM | 
54 | COc1cccc(NC(=O)c2cnsn2)c1 | inconclusive: 29.1 µM [activator, single point] | 
55 | CN(C)CCCN(C(=O)c1ccc(S(=O)(=O)N2CCCCCC2)cc1)c1nc2cc3c(cc2s1)OCCO3 | inconclusive: 20.6 µM [activator, single point] | 
56 | CCOC(=O)c1cc(C(=O)NC(C)c2ccccc2)c(C)[nH]c1=O (configuration not stated) |  | inactive: -3.21%
57 | Cc1cccc(C)c1NS(=O)(=O)c1ccc(OCCNS(C)(=O)=O)cc1 |  | inactive: -5.49%
58 | O=C1C(C=NCC2CCCO2)=C(O)c2ccccc21 (configuration not stated) | inconclusive: 11.6 µM [activator, partial curve] | 
59 | COc1ccccc1Nc1nc(-c2cccs2)cs1 | inconclusive: 9.2 µM [activator, partial curve] | 
60 | CN(C(=O)c1cc2sccc2n1C)C1CCCCC1 | inconclusive: 13 µM [activator, partial curve, poor fit] | 
61 | O=C(/C=C/c1ccco1)N1CCC(Cc2ccccc2)CC1 | inconclusive: 18.3 µM [activator, partial curve, poor fit] | 
62 | O=C(O)CC1SC(=O)N(Cc2ccccc2)C1=O (configuration not stated) |  | inactive: 2.95%
63 | O=c1c2cccnc2n(-c2ccccc2)n1Cc1ccc(Cl)cc1 | inconclusive: 3.26 µM [activator, partial curve, poor fit] | 
64 | CS(=O)(=O)N1N=C(c2ccc(Cl)cc2)CC1c1cccs1 (configuration not stated) | inconclusive: 20.6 µM [activator, partial curve] | 
65 | Nc1ncnc2c1c(-c1ccc(Oc3ccccc3)cc1)cn2C1CCCC1 | inconclusive: 25.9 µM [activator, partial curve, poor fit] | 
66 | Cc1c(C(=O)OCCOc2ccccc2)[nH]c2c1C(=O)CCC2 | inconclusive: 1 µM [activator, full curve, poor fit] | 
67 | O=C(NC(=S)Nc1ccccn1)c1ccc(-c2ccccc2)cc1 | inconclusive: 0.259 µM [activator, single point] | 
68 | CCn1nc(C(=O)OCC(=O)Nc2nc(-c3ccc(OC)cc3)cs2)c2ccccc2c1=O | inconclusive: 20.6 µM [activator, partial curve] | 
69 | Cn1c(NCc2cccc(Br)c2)nc2ccccc21 | inconclusive: 25.9 µM [activator, single point] | 
70 | Cc1ccccc1NC(=O)C1C2CCC(O2)C1C(=O)O (configuration not stated) | inconclusive: 18.4 µM [activator, partial curve, poor fit] | 
71 | CCCCOc1cccc(/C=N/NC(=O)c2csc(C)c2C)c1 |  | inactive: -3.98%
72 | CCOc1ccc(N2C(=O)c3cccnc3C2Nc2ccc(C)c(C)c2)cc1 (configuration not stated) |  | inactive: 2.15%
73 | COC(=O)c1c(C)nc(C)c2c(=O)oc3ccccc3c12 | inconclusive: 23.1 µM [activator, partial curve, poor fit] | 
74 | CCc1nc2oc3ccccc3c(=O)c2cc1C(=O)OC | inconclusive: 18.3 µM [activator, single point] | 
75 | COc1ccccc1-c1ccc(=O)n(CC(=O)NCc2cccs2)n1 | inconclusive: 20.6 µM [activator, partial curve, poor fit] | 
76 | COc1ccc(NC2=C(C)C(=O)CC2)cc1 | active: 18.4 µM | 
77 | Cc1ccc(-c2nc3ccc(NS(=O)(=O)c4ccccc4)cc3[nH]2)o1 | inconclusive: 6.51 µM [activator, partial curve] | 
